One compound from PubChem BioAssay (NCI) can be followed below.

Molecules are shown by their SMILES.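 Following 48 hours of exposure in 96-well plates, responses at five concentrations were used to interpolate endpoints linearly. GI50: concentration for 50% inhibition of growth. TGI denotes the concentration required for complete inhibition of growth.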

For the assay, the system named is NCI-H322M lung. Nature of the assay: DTP human tumour cell line panel, 48 h.

On to `O=C(NNc1nc2cc(F)cc(F)c2n2cccc12)c1ncccn1`, for which the GI50 is 0.312 µM and the total growth inhibition concentration (TGI) was over 20.1 µM.
